The text below walks through data of PMC2991254.

By UniProt entry, the sequences of proteins in these tests, tags left out. Where a name states a change or a piece, a line headed by the entry shows the natural chain unless it says otherwise.
UniProt P17839: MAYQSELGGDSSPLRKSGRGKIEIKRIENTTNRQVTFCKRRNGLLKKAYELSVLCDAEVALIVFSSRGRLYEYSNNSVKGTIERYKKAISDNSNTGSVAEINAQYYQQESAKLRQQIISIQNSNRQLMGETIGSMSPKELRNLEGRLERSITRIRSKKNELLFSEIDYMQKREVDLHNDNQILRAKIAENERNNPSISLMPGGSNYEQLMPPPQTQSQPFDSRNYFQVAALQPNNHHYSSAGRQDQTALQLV
UniProt O82794: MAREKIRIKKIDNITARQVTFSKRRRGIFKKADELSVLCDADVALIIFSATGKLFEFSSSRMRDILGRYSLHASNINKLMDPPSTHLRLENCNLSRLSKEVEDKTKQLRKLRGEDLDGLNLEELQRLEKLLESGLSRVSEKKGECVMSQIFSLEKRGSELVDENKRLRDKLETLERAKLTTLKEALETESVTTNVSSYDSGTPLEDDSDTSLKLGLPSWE
UniProt O82743: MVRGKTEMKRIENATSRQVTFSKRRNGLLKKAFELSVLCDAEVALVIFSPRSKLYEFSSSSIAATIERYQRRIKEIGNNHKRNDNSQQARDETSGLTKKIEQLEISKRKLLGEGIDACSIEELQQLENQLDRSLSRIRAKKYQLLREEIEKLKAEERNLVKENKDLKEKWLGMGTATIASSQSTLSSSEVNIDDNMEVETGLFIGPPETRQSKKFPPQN
UniProt Q9SZJ6: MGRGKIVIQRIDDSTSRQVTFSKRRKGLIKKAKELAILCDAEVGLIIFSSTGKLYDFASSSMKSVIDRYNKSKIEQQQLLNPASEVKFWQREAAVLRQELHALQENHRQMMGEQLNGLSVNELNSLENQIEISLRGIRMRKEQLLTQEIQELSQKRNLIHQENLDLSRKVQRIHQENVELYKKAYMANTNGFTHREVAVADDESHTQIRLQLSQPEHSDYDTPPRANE
UniProt P29386: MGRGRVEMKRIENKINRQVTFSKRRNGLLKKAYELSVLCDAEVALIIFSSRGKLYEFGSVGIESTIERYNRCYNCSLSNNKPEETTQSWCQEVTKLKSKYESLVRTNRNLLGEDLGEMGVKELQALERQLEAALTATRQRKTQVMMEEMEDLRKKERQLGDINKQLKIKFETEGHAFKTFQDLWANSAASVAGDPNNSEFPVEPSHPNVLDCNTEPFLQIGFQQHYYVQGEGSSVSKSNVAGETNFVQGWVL
UniProt Q39081: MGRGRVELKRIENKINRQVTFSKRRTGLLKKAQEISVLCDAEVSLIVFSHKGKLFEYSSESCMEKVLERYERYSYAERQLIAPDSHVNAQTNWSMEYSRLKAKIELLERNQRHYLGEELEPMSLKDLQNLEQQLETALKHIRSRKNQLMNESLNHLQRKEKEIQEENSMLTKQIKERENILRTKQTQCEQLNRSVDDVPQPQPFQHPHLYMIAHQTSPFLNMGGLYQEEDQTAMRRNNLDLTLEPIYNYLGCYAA
UniProt Q9S7Q7: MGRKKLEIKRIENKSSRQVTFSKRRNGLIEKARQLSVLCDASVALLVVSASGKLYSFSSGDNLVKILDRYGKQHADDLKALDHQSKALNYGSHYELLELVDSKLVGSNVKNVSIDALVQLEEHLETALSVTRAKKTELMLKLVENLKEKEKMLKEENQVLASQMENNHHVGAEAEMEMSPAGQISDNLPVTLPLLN
UniProt P29382: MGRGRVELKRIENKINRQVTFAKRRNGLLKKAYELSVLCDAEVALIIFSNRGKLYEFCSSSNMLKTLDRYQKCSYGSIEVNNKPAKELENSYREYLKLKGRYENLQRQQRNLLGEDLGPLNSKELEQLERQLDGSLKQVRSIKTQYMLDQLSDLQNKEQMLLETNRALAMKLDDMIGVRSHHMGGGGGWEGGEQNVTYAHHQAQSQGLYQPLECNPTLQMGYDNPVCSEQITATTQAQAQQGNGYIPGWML
UniProt O22456: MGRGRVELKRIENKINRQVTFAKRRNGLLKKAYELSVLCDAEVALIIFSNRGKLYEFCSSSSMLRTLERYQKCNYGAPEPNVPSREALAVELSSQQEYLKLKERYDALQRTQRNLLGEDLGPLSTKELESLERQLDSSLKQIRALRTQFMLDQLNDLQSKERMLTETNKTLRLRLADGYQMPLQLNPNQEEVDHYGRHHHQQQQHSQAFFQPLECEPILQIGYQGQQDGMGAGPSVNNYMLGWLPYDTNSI
UniProt O64645: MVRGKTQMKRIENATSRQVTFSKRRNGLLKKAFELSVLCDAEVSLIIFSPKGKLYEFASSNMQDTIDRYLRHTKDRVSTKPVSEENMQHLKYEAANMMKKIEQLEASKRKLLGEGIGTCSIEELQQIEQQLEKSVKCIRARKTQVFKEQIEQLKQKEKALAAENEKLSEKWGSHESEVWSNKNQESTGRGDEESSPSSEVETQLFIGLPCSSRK
UniProt Q38836: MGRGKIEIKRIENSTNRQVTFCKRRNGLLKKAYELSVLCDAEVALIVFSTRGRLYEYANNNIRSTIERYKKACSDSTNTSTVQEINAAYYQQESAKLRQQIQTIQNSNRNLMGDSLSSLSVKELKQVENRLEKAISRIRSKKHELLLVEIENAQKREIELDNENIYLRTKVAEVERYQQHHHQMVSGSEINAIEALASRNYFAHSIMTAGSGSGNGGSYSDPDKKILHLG
UniProt P29381: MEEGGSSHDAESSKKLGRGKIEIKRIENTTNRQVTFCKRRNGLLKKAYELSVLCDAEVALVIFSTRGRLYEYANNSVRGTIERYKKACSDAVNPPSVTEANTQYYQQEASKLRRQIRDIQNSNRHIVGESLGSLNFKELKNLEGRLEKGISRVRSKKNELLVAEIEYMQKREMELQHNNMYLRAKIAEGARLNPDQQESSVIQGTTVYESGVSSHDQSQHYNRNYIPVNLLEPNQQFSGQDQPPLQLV
UniProt Q38838: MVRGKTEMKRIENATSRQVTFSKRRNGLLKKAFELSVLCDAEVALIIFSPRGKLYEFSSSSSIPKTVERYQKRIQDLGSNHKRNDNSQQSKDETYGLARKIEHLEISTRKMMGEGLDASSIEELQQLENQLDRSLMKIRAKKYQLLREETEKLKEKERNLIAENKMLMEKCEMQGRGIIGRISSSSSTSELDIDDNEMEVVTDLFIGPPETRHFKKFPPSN

What all share (experiment): two-hybrid; matrix-based yeast two-hybrid, GAL4-AD and GAL4-BD fusions (pDEST22, pDEST32), in duplicate, at least two reporter genes; medium lacking Leu, Trp and His with 1 mM 3-amino-1,2,4-triazole, growth scored after 4 days at 20°C
Assay [1] concerns the target AGAMOUS (Arabidopsis thaliana) (UniProt P17839).
Assay [2] concerns the target AGAMOUS-LIKE24 (Arabidopsis thaliana) (UniProt O82794).
Assay [3] has as its target T1, AGL15 (Arabidopsis thaliana) (UniProt Q38847).
T1 sequence: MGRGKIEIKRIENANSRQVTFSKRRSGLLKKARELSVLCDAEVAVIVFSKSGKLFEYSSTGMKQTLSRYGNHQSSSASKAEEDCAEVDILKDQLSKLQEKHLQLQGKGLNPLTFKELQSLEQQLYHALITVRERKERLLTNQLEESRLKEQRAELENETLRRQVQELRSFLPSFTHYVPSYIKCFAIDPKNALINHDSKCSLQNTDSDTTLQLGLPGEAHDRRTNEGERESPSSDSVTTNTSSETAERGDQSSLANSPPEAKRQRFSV

Assay [4] concerns the target AGL19 (Arabidopsis thaliana) (UniProt O82743).
The target of assay [5] is AGL21 (Arabidopsis thaliana) (UniProt Q9SZJ6).
Assay [6] concerns the target AGL6 (Arabidopsis thaliana) (UniProt P29386).
The target of assay [7] is CAULIFLOWER (Arabidopsis thaliana) (UniProt Q39081).
In assay [8] the target is FLOWERING LOCUS C (Arabidopsis thaliana) (UniProt Q9S7Q7).
Assay [9] has as its target SEP1 (Arabidopsis thaliana) (UniProt P29382).
The target of assay [10] is SEP3 (Arabidopsis thaliana) (UniProt O22456).
For assay [11], the target named is SHORT … PHASE (SVP1) (Arabidopsis thaliana) (UniProt Q9FVC1).
The target of assay [12] is SUPPRESSOR OF OVEREXPRESSION OF CO 1 (Arabidopsis thaliana) (UniProt O64645).
Assay [13] concerns the target T2, XAL1 (Arabidopsis thaliana) (UniProt Q38841).
T2 sequence: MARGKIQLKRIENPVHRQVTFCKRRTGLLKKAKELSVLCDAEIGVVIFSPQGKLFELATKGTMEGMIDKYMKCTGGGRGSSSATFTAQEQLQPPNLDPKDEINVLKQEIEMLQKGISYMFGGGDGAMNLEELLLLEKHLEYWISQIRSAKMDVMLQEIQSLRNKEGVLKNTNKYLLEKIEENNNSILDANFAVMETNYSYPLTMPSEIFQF

Another assay concerns the target … (Arabidopsis thaliana) (UniProt Q38836).
Assay [14] concerns the target …OOF1 (Arabidopsis thaliana) (UniProt P29381).

No constants are given. Whether binding was seen depends on the method and setting. Some results given as binding are weak or reduced against the parent protein; the word gives no strength.

Turning to AG Q126H (from UniProt P17839 1-252), the binding entry in assay [1], in assay [2], in assay [3], in [4], in [5] and in assay [6] was “no binding” in each case. Also, the binding result in assay [7] was “no binding”; in assay [8] it was “no binding”; in [9], “binds”; in [10], “binds”; in assay [11], “no binding”; in assay [12], “no binding”. Further, the binding result (in assay [13]; in the assay with … (Arabidopsis thaliana); in assay [14]) was “no binding” in each case.
For the substance AGAMOUS (from UniProt P17839 1-252), the binding result in [3] is given as “binds”; in [4] it was “no binding”; in [5] it was “binds”; in [6] it was “no binding”; in [7], “no binding”; in assay [8], “no binding”. In addition, the binding result in assay [9] is recorded as “binds”; in assay [10], “binds”; in assay [11], “binds”; in [12], “no binding”; in assay [13] it was “no binding”; with … (Arabidopsis thaliana), “no binding”. Also, in assay [14], the binding entry is given as “no binding”.
With “AGAMOUS LIKE14 (from UniProt Q38838 1-221)”, the binding result in assay [1] is “no binding”; in assay [2], “binds”; in [3], “no binding”; in assay [4] it was “no binding”; in [5], “no binding”; in [6], “no binding”. For the same substance, the binding result in [7] is “no binding”; in assay [8], “no binding”; in [9], “no binding”; in assay [10] it was “no binding”; in [12], “binds”; in assay [13], “no binding”. Further, the binding result (with … (Arabidopsis thaliana); in [14]) was “no binding” throughout.
Take “SHORT … PHASE (SVP1) (from UniProt Q9FVC1 1-240)”: the binding entry in [1] is “binds”; in assay [2], “no binding”; in [3] it was “no binding”; in assay [4], “binds”; in assay [5] it was “binds”; in [6] it was “binds”. For the same substance, the binding entry in [7] is recorded as “no binding”; in [8] it was “binds”; in assay [9], “binds”; in [10], “binds”; in assay [12], “binds”; in assay [13], “no binding”. The results for the binding entry (with … (Arabidopsis thaliana); in assay [14]) were “no binding” and “binds”, respectively.
With “SUPPRESSOR OF OVEREXPRESSION OF CO 1 (from UniProt O64645 1-214)”, the binding result in assay [1] was “no binding”; in [2], “binds”; in assay [3] it was “binds”; in assay [4], “binds”; in assay [5], “binds”; in assay [7], “binds”. In addition, the binding result in [8] is given as “no binding”; in [10], “binds”; in [11], “binds”; in assay [12] it was “binds”; in assay [13], “binds”; with … (Arabidopsis thaliana), “no binding”. For the same substance, the binding result in assay [14] is recorded as “binds”.
